The source of these data is the supplement of paper PMC9446081.

About 220 (0.56%) of roughly 39,000 compounds showed activity. The list shows a part of the results.
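Also: static incubation at 37 °C against the wild-type strain, values averaged over two biological replicates.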

The assay deals with Escherichia coli K-12 BW25113. Briefly: relative growth (OD600 normalised to plate interquartile mean) (fraction); higher = less growth inhibition, active = 0.2 or less. The conditions noted are these: 50 µM; LB; incubation time: overnight (16-24 h).
For `Cc1nc(CCO)cs1`, the relative growth is inactive: 1.02.

As for `C[C@@H]1CN([C@H](C)CO)C(=O)c2cc(NS(=O)(=O)c3cn(C)cn3)ccc2O[C@@H](C)CCCCO[C@H]1CN(C)C(=O)Nc1ccc(C(F)(F)F)cc1`, the relative growth was inactive: 0.951.

Consider `CCc1cnc2c(c1OC)c(=O)[nH]c(=O)n2C`, for which the relative growth is inactive: 0.975.

As for `CN1CCC[C@H]1CO`, the relative growth is inactive: 0.919.

Regarding `C[C@@H]1CCCCO[C@@H](CN(C)S(=O)(=O)c2cccs2)[C@@H](C)CN([C@@H](C)CO)C(=O)c2cc(NC(=O)C3CCCCC3)ccc2O1`, the relative growth is inactive: 1.01.

As to `CC(C)(C)[S@](=O)N1Cc2cc(C(=O)N[C@H]3CCN(Cc4ccccc4)C3)nc(-c3cccc(-c4ccncc4)c3)c2[C@@H]1CCO`, the relative growth is inactive: 1.02.

As to `Cc1ccc(NC2C(=O)NC(=O)N2N)cc1` (stereo not drawn), the relative growth is inactive: 0.942.

Take `Cc1cc(C(=O)Nc2ccc(S(=O)(=O)O)c3cc(S(=O)(=O)O)cc(S(=O)(=O)O)c23)ccc1NC(=O)c1cccc(NC(=O)Nc2cccc(C(=O)Nc3cc(C(=O)Nc4ccc(S(=O)(=O)O)c5cc(S(=O)(=O)O)cc(S(=O)(=O)O)c45)ccc3C)c2)c1`: the relative growth is inactive: 1.01.

Turning to `C[C@@H]1CN([C@@H](C)CO)C(=O)c2cccc(NC(=O)c3ccncc3)c2O[C@H]1CN(C)Cc1ccncc1`, the relative growth is inactive: 0.984.

As to `COc1ccc(S(=O)(=O)N[C@H]2CC[C@@H](CC(=O)N3CCC(Cc4ccccc4)CC3)O[C@@H]2CO)cc1`, the relative growth was inactive: 1.03.

As to `COCC#Cc1ccc2c(c1)O[C@@H](CN(C)S(=O)(=O)c1ccc(F)cc1)[C@H](C)CN([C@@H](C)CO)S2(=O)=O`, the relative growth is inactive: 1.02.

As to `CC(C)Cc1ccc(C(C)C(=O)O)cc1` (stereo not drawn), the relative growth was inactive: 1.07.

`CCSC(=O)NC1CCCCC1`: the relative growth was inactive: 0.967.

For the compound `Cc1ccc(S(=O)(=O)Nc2ccc3c(c2)C(=O)N([C@H](C)CO)C[C@H](C)[C@H](CN(C)Cc2ccc4c(c2)OCO4)OCCCC[C@H](C)O3)cc1`, the relative growth is inactive: 1.01.

Take `CC(C)NC(=O)Nc1ccc2c(c1)C(=O)N([C@H](C)CO)C[C@H](C)[C@@H](CN(C)Cc1ccc(C(F)(F)F)cc1)OCCCC[C@@H](C)O2`: the relative growth is inactive: 1.03.

Regarding `CC(C)NC(=O)N(C)C[C@@H]1Oc2c(NS(=O)(=O)c3cn(C)cn3)cccc2C(=O)N([C@@H](C)CO)C[C@@H]1C`, the relative growth is inactive: 0.986.

On to `C[C@@H]1CN([C@H](C)CO)C(=O)Cc2cc(NC(=O)CCN3CCOCC3)ccc2O[C@H]1CN(C)C(=O)Nc1ccc2c(c1)OCO2`, for which the relative growth is inactive: 1.

As for `C[C@@H]1CN([C@@H](C)CO)C(=O)c2cccc(NC(=O)CCCCCC(=O)Nc3ccccc3N)c2O[C@H]1CN(C)C(=O)Nc1ccc(F)cc1`, the relative growth was inactive: 1.01.

Consider `COCC#Cc1ccc([C@@H]2[C@H](CO)N3C(=O)CN(C(=O)c4cccnc4)C[C@@H]23)cc1`, for which the relative growth is inactive: 1.03.

As to `C[C@@H]1CN([C@H](C)CO)C(=O)c2cc(NC(=O)Nc3ccc(C(F)(F)F)cc3)ccc2O[C@@H](C)CCCCO[C@H]1CN(C)Cc1ccc2c(c1)OCO2`, the relative growth was inactive: 0.924.

With `C[C@@H]1CCCCO[C@@H](CN(C)C(=O)CCC(F)(F)F)[C@@H](C)CN([C@H](C)CO)C(=O)c2cc(NC(=O)Nc3ccc(F)cc3)ccc2O1`, the relative growth was inactive: 0.982.

Take `C[C@@H]1CN([C@H](C)CO)C(=O)CCCn2cc(nn2)CO[C@H]1CN(C)Cc1ccc2c(c1)OCCN2C`: the relative growth is inactive: 1.

`COc1cc(F)c(F)c(Nc2ccc(I)cc2F)c1NS(=O)(=O)C1(C[C@H](O)CO)CC1`: the relative growth was inactive: 1.03.

`COc1cc(OC)c(S(=O)(=O)N(C)Cc2ccccc2)cc1S(=O)(=O)N(C)Cc1ccccc1`: the relative growth is inactive: 1.03.

Take `COc1cccc(S(=O)(=O)N(C)C[C@@H]2OCc3cn(nn3)CCCC(=O)N([C@H](C)CO)C[C@H]2C)c1`: the relative growth is inactive: 0.963.

`CC1(C)SC2C(NC(=O)C(C(=O)[O-])c3ccsc3)C(=O)N2C1C(=O)[O-].[Na+].[Na+]` (stereo not drawn): the relative growth was inactive: 1.15.

As to `CN(C)CCCNC(=O)C[C@H]1CC[C@H]2[C@H](COc3ccc(NC(=O)c4ccccc4F)cc3C(=O)N2C)O1`, the relative growth was inactive: 1.01.

Turning to `COc1ccc([Si](C)(C)[C@@H]2[C@@H](CCO)O[C@]3(C(=O)N(Cc4ccc(N5CCCCC5=O)cc4)c4ccccc43)[C@H]2C)cc1`, the relative growth is inactive: 1.

`C[C@@H]1CN([C@@H](C)CO)C(=O)c2cccc(NC(=O)C3CCCCC3)c2O[C@H]1CN(C)Cc1ccc(C(F)(F)F)cc1`: the relative growth was inactive: 0.946.

Consider `O=C(C[C@@H]1CC[C@H]2[C@@H](COC[C@H](O)CN2C(=O)c2ccc3c(c2)OCO3)O1)NCCN1CCCC1`, for which the relative growth is inactive: 1.

As to `C[C@H](C(=O)O)N1CCCCC1`, the relative growth is inactive: 0.979.

For the compound `COc1ccc(NC(=O)Nc2ccc3c(c2)C(=O)N([C@H](C)CO)C[C@@H](C)[C@@H](CN(C)S(=O)(=O)c2ccc(F)cc2)OCCCC[C@@H](C)O3)cc1`, the relative growth is inactive: 1.

For `C[C@H](CO)N1C[C@H](C)[C@@H](CN(C)Cc2ccc(-c3ccccc3)cc2)Oc2ccc(NC(=O)c3ccncc3)cc2CC1=O`, the relative growth is inactive: 0.993.

With `COc1ccc(NC(=O)Nc2ccc3c(c2)C(=O)N([C@@H](C)CO)C[C@H](C)[C@H](CN(C)Cc2ccc(C(F)(F)F)cc2)OCCCC[C@@H](C)O3)cc1`, the relative growth was inactive: 0.996.

For the compound `CCCC[C@@H](CC)COc1ccc(-c2nc(-c3ccc(OC)cc3)nc(-c3ccc(OC[C@@H](CC)CCCC)cc3O)n2)c(O)c1`, the relative growth is inactive: 1.02.

Regarding `C[C@H](CO)N1C[C@H](C)[C@H](CN(C)S(=O)(=O)c2ccccc2)Oc2ccc(NS(C)(=O)=O)cc2C1=O`, the relative growth was inactive: 0.998.

On to `C[C@H](CO)N1C[C@H](C)[C@@H](CN(C)S(=O)(=O)c2cn(C)cn2)Oc2c(NC(=O)C3CC3)cccc2C1=O`, for which the relative growth is inactive: 1.01.

Regarding `O=C(C[C@H]1C[C@@H]2c3cc(NC(=O)Nc4ccc(C(F)(F)F)cc4)ccc3O[C@@H]2[C@H](CO)O1)NCc1ccc(Cl)cc1`, the relative growth was inactive: 1.04.

As for `C[C@@H]1CCCCO[C@H](CN(C)C(=O)Cc2ccccc2)[C@H](C)CN([C@@H](C)CO)C(=O)c2cc(NC(=O)CCC(F)(F)F)ccc2O1`, the relative growth is inactive: 0.99.

On to `CO[C@H]1CN(C)C(=O)c2ccc(NS(=O)(=O)CC(F)(F)F)cc2OC[C@H](C)N(C(=O)NC(C)C)C[C@@H]1C`, for which the relative growth is inactive: 0.979.

Take `C[C@@H]1CN([C@H](C)CO)C(=O)c2cc(NC(=O)Cn3cnnn3)ccc2O[C@@H]1CN(C)Cc1ccccc1`: the relative growth was inactive: 0.993.

On to `COc1ccc([Si](C)(C)[C@@H]2[C@@H](CC(=O)N3CCC[C@H]3CO)O[C@]3(C(=O)N(Cc4cccc(N5CCCCC5=O)c4)c4ccccc43)[C@H]2C)cc1`, for which the relative growth is inactive: 1.02.

For `O=C(C[C@@H]1CC[C@@H]2[C@H](COC[C@H](O)CN2S(=O)(=O)c2ccccc2)O1)N[C@H]1CCN(Cc2ccccc2)C1`, the relative growth is inactive: 0.962.

With `COc1ccc(S(=O)(=O)N(C)C[C@@H]2Oc3c(NS(=O)(=O)c4ccc(C)cc4)cccc3C(=O)N([C@H](C)CO)C[C@H]2C)cc1`, the relative growth is inactive: 0.996.

As for `C[C@H](CO)N1C[C@H](C)[C@@H](CN(C)CC2CCCCC2)OCCCC[C@H](C)Oc2ccc(NS(=O)(=O)c3ccccc3)cc2C1=O`, the relative growth was inactive: 0.982.

In the case of `Cc1noc(C)c1NC(=O)Nc1ccc2c(c1)C(=O)N([C@H](C)CO)C[C@H](C)[C@@H](CN(C)S(=O)(=O)c1cccs1)OCCCC[C@H](C)O2`, the relative growth is inactive: 0.985.

As for `C[C@@H]1CN([C@@H](C)CO)C(=O)c2cc(NC(=O)Nc3cccc4ccccc34)ccc2O[C@H]1CN(C)C(=O)Nc1ccccc1`, the relative growth was inactive: 0.994.

Turning to `C[C@@H]1CCCCO[C@H](CN(C)S(=O)(=O)c2ccc(F)cc2)[C@H](C)CN([C@@H](C)CO)C(=O)c2cc(NC(=O)c3ccccc3)ccc2O1`, the relative growth is inactive: 1.03.

`O=C(O)[C@@H]1CCCC[C@@H]1C(=O)N1CCc2ccccc2[C@H]1CN1C(=O)c2ccccc2C1=O.O=C(O)[C@H]1CCCC[C@@H]1C(=O)N1CCc2ccccc2[C@H]1CN1C(=O)c2ccccc2C1=O`: the relative growth is inactive: 1.

Take `C[C@H](CO)N1C[C@H](C)[C@@H](CN(C)C(=O)NC2CCCCC2)OCCCC[C@H](C)Oc2ccc(NC(=O)C3CCCCC3)cc2C1=O`: the relative growth is inactive: 0.994.

Take `O=C(C[C@@H]1CC[C@@H]2[C@H](COC[C@@H](O)CN2C(=O)Nc2cc(Cl)cc(Cl)c2)O1)N1CCOCC1`: the relative growth was inactive: 0.988.

As for `NCCCC[C@H](NC(=O)[C@@H]1CCCN1C(=O)[C@@H]1CSSC[C@H](N)C(=O)N[C@@H](Cc2ccccc2)C(=O)N[C@@H](Cc2ccccc2)C(=O)NC(CCC(N)=O)C(=O)N[C@@H](CC(N)=O)C(=O)N1)C(=O)NCC(N)=O` (stereo partly drawn), the relative growth was inactive: 0.97.

In the case of `COCC(=O)Nc1ccc2c(c1)C(=O)N(C)[C@@H]1CC[C@H](CC(=O)N3CCc4ccccc4C3)O[C@H]1CO2`, the relative growth is inactive: 0.995.

As to `CO[C@@H]1CN(C)C(=O)c2ccc(NS(=O)(=O)c3cn(C)cn3)cc2OC[C@H](C)N(CC2CC2)C[C@@H]1C`, the relative growth is inactive: 1.

Regarding `COc1ccc(S(=O)(=O)N2C[C@H](O)COC[C@H]3O[C@H](CC(=O)NCCN4CCCCC4)CC[C@@H]32)cc1`, the relative growth was inactive: 1.

Turning to `NCCC[C@@H](N)CC(=O)NC[C@H]1NC(=O)[C@@H](CO)NC(=O)[C@@H](N)CNC(=O)[C@H]([C@H]2CCN=C(N)N2)NC(=O)C(C=NC(N)=O)NC1=O` (stereo partly drawn), the relative growth is inactive: 0.892.

Regarding `C[C@@H]1CN([C@H](C)CO)C(=O)c2cc(NC(=O)C3CC3)ccc2O[C@@H]1CN(C)Cc1ccc(-c2ccccc2)cc1`, the relative growth was inactive: 1.01.

For the compound `C[C@H](CO)N1C[C@H](C)[C@@H](CN(C)CC2CC2)OCCCC[C@H](C)Oc2ccc(NC(=O)Nc3ccc(F)cc3)cc2C1=O`, the relative growth was inactive: 0.987.
